For 27 molecules, cytotoxicity call and growth inhibition call results are on record in the antibiotic and cytotoxicity screens of Wong et al. (2023).

This is one part of the list.

One experiment relates to HSkMC. Briefly: cytotoxicity call (relative viability < 0.9). The following applies: 10 µM.
Another experiment deals with HepG2. Briefly: cytotoxicity call (relative viability < 0.9). The following applies: 10 µM.
The next experiment deals with S. aureus RN4220. Briefly: growth inhibition call (relative growth <= 0.2). To be noted: 50 µM.

For `CC(C)NC(=O)N(C)C[C@H]1Oc2cc(-c3ccccc3F)ccc2S(=O)(=O)N([C@@H](C)CO)C[C@H]1C`, the cytotoxicity call with HSkMC and in the experiment on HepG2 was “inactive” in each case. Besides, the growth inhibition call in the experiment on S. aureus RN4220 was “inactive”.

In the case of `C[C@@H]1CN([C@@H](C)CO)C(=O)c2cccc(NC(=O)c3ccc(-c4nccs4)cc3)c2O[C@@H]1CN(C)Cc1ccc(C(=O)O)cc1`, the cytotoxicity call in the experiment with HSkMC and in the experiment with HepG2 was “inactive” throughout. Also, the growth inhibition call in the experiment with S. aureus RN4220 was “inactive”.

For `OC1C(O)C(O)C(O)C(O)C1O` (stereo unspecified), the cytotoxicity call in the experiment on HSkMC and in the experiment with HepG2 was “inactive” each time. Besides, the growth inhibition call in the experiment with S. aureus RN4220 is “inactive”.

Take `COc1ccccc1O`: the cytotoxicity call in the experiment with HSkMC and in the experiment with HepG2 was “inactive” throughout. Further, in the experiment with S. aureus RN4220, the growth inhibition call was “inactive”.

With `C[C@H](CO)N1C[C@H](C)[C@@H](CN(C)C(=O)Nc2ccccc2)OCCCC[C@H](C)Oc2ccc(NC(=O)c3ccncc3)cc2C1=O`, the cytotoxicity call in the experiment on HSkMC and in the experiment with HepG2 was “inactive” each time. Further, the growth inhibition call in the experiment with S. aureus RN4220 is “inactive”.

As to `C[C@@H]1CN([C@@H](C)CO)C(=O)c2cc(NC(=O)Nc3ccccc3)ccc2O[C@@H]1CN(C)S(C)(=O)=O`, the cytotoxicity call with HSkMC and in the experiment on HepG2 was “inactive” in each case. Moreover, the growth inhibition call with S. aureus RN4220 is “inactive”.

On to `Cc1ccc(-c2cnc3c(c2)C(=O)N([C@H](C)CO)C[C@H](C)[C@H](CN(C)C(=O)Cc2cccnc2)O3)cc1`, for which the cytotoxicity call in the experiment on HSkMC and in the experiment on HepG2 was “inactive” in each case. Besides, the growth inhibition call in the experiment on S. aureus RN4220 is “inactive”.

In the case of `C[C@H](CO)N1C[C@H](C)[C@@H](CN(C)Cc2ccc(Cl)c(Cl)c2)Oc2c(NC(=O)c3ccc(-c4nccs4)cc3)cccc2C1=O`, the cytotoxicity call in the experiment on HSkMC and in the experiment on HepG2 was “inactive” throughout. Besides, the growth inhibition call with S. aureus RN4220 is “inactive”.

As for `C[C@@H]1CCCCO[C@H](CN(C)C(=O)Nc2ccc3c(c2)OCO3)[C@H](C)CN([C@@H](C)CO)C(=O)c2cc(NC(=O)Cc3ccccc3)ccc2O1`, the cytotoxicity call in the experiment with HSkMC and in the experiment with HepG2 was “inactive” in each case. Further, the growth inhibition call with S. aureus RN4220 is “inactive”.

`O=C(ON1C(=O)CCC1=O)c1ccccc1`: the cytotoxicity call in the experiment on HSkMC and in the experiment on HepG2 was “inactive” throughout. Also, the growth inhibition call with S. aureus RN4220 is “inactive”.

`C[C@@H]1CCCCO[C@H](CN(C)C(=O)Nc2ccc(C(F)(F)F)cc2)[C@@H](C)CN([C@H](C)CO)C(=O)c2cc(NC(=O)NC3CCCCC3)ccc2O1`: the cytotoxicity call with HSkMC and in the experiment with HepG2 was “inactive” each time. For the same molecule, the growth inhibition call with S. aureus RN4220 is “inactive”.

With `CN(C)CC(=O)N1[C@@H]2c3ccc(-c4ccccc4)c(=O)n3C[C@H]1[C@H](CO)[C@H]2C(=O)N1CCOCC1`, the cytotoxicity call in the experiment on HSkMC and in the experiment with HepG2 was “inactive” each time. Moreover, in the experiment on S. aureus RN4220, the growth inhibition call is “inactive”.

As to `O=C(C[C@@H]1C=C[C@H](NC(=O)Cc2ccccn2)[C@H](CO)O1)NCCCN1CCOCC1`, the cytotoxicity call with HSkMC and in the experiment on HepG2 was “inactive” in each case. For the same molecule, the growth inhibition call in the experiment on S. aureus RN4220 is “inactive”.

Take `C[C@H]1CCCCO[C@H](CN(C)S(=O)(=O)c2ccc(Cl)cc2)[C@@H](C)CN([C@@H](C)CO)C(=O)c2cc(NC(=O)Nc3ccc4c(c3)OCO4)ccc2O1`: the cytotoxicity call in the experiment on HSkMC is “inactive”. Besides, the cytotoxicity call with HepG2 is “active”. Besides, the growth inhibition call in the experiment with S. aureus RN4220 is “inactive”.

`C[C@@H]1CCCCO[C@@H](CN(C)CC2CCCCC2)[C@@H](C)CN([C@H](C)CO)C(=O)c2cc(NC(=O)c3ccncc3)ccc2O1`: the cytotoxicity call in the experiment on HSkMC and in the experiment with HepG2 was “inactive” in each case. The growth inhibition call in the experiment with S. aureus RN4220 was “inactive”.

Take `CCNC(=O)C[C@@H]1CC[C@H]2[C@H](COc3ccc(NS(=O)(=O)c4ccccc4C)cc3C(=O)N2C)O1`: the cytotoxicity call with HSkMC and with HepG2 was “inactive” throughout. Moreover, the growth inhibition call in the experiment on S. aureus RN4220 is “inactive”.

Consider `CN1C(=O)c2cc(NS(C)(=O)=O)ccc2OC[C@H]2O[C@H](CC(=O)N3CCOCC3)CC[C@@H]21`, for which the cytotoxicity call in the experiment on HSkMC and with HepG2 was “inactive” throughout. In addition, the growth inhibition call in the experiment on S. aureus RN4220 is “inactive”.

For `C[C@H](CO)N1C[C@H](C)[C@@H](CN(C)C(=O)C2CCCCC2)OCCCC[C@H](C)Oc2ccc(NC(=O)Nc3cccc4ccccc34)cc2C1=O`, the cytotoxicity call with HSkMC and in the experiment with HepG2 was “inactive” throughout. Moreover, the growth inhibition call in the experiment with S. aureus RN4220 is “inactive”.

Take `C[C@@H]1CCCCO[C@H](CN(C)C(=O)Nc2ccc(C(F)(F)F)cc2)[C@H](C)CN([C@H](C)CO)C(=O)c2cc(NC(=O)Nc3ccc(C(F)(F)F)cc3)ccc2O1`: the cytotoxicity call in the experiment on HSkMC and with HepG2 was “inactive” throughout. The growth inhibition call with S. aureus RN4220 is “inactive”.

On to `Cc1noc(C)c1S(=O)(=O)N(C)C[C@@H]1Oc2ccc(NC(=O)Nc3ccccc3)cc2CC(=O)N([C@H](C)CO)C[C@@H]1C`, for which the cytotoxicity call in the experiment with HSkMC and in the experiment on HepG2 was “inactive” each time. Besides, in the experiment with S. aureus RN4220, the growth inhibition call was “inactive”.

On to `COC(=O)c1ccc(=O)oc1`, for which the cytotoxicity call in the experiment with HSkMC and in the experiment with HepG2 was “inactive” each time. For the same molecule, in the experiment with S. aureus RN4220, the growth inhibition call was “inactive”.

Regarding `Cc1ccc(S(=O)(=O)N(C)C[C@H]2Oc3ccc(NC(=O)Nc4cccc5ccccc45)cc3CC(=O)N([C@@H](C)CO)C[C@@H]2C)cc1`, the cytotoxicity call in the experiment with HSkMC and in the experiment with HepG2 was “inactive” in each case. Also, the growth inhibition call with S. aureus RN4220 was “inactive”.

With `Cc1noc(C)c1S(=O)(=O)Nc1ccc2c(c1)CC(=O)N([C@H](C)CO)C[C@@H](C)[C@H](CN(C)S(=O)(=O)c1ccc(F)cc1)O2`, the cytotoxicity call in the experiment with HSkMC and in the experiment on HepG2 was “inactive” each time. Besides, the growth inhibition call with S. aureus RN4220 was “inactive”.

For the molecule `CC(C)N1CC=C[C@@]23O[C@@H]4C=CCCOC(=O)[C@@H]4[C@H]2C(=O)N(CCCO)[C@@H]3C1=O`, the cytotoxicity call with HSkMC and in the experiment on HepG2 was “inactive” each time. The growth inhibition call in the experiment on S. aureus RN4220 was “inactive”.

For `COc1ccc2c3c(n(c2c1)C)[C@@H](CO)N(C[C@]13CN(C1)S(=O)(=O)C)C(=O)CN(C)C`, the cytotoxicity call in the experiment on HSkMC and with HepG2 was “inactive” each time. Besides, in the experiment with S. aureus RN4220, the growth inhibition call is “inactive”.

As to `O=C(NCCN1CCOCC1)[C@@]1(CCS(=O)(=O)c2ccccc2)COC(c2ccc(OCCCO)cc2)=N1`, the cytotoxicity call in the experiment on HSkMC and in the experiment on HepG2 was “inactive” throughout. The growth inhibition call in the experiment on S. aureus RN4220 is “inactive”.

Turning to `Cc1noc(C)c1NC(=O)N(C)C[C@H]1Oc2ccc(NS(=O)(=O)c3c(C)noc3C)cc2CC(=O)N([C@@H](C)CO)C[C@H]1C`, the cytotoxicity call in the experiment on HSkMC (human skeletal muscle cells) and in the experiment with HepG2 was “inactive” in each case. In addition, the growth inhibition call in the experiment on S. aureus RN4220 is “inactive”.
